Data reported in publication PMC4336329 (PLoS ONE, 2015).
Screen size: about 310,000 compounds; about 2,200 (0.71%) showed an effect of 50% or more. Effects have a minus sign here. This is one part of the list.

Biological target: human ether-à-go-go-related gene (hERG) potassium channel (human, UniProt Q12809)
Experiment: primary screen, population patch clamp on CHO cells stably expressing hERG

Sequence of human ether-à-go-go-related gene (hERG) potassium channel (Q12809 whole entry, looked up): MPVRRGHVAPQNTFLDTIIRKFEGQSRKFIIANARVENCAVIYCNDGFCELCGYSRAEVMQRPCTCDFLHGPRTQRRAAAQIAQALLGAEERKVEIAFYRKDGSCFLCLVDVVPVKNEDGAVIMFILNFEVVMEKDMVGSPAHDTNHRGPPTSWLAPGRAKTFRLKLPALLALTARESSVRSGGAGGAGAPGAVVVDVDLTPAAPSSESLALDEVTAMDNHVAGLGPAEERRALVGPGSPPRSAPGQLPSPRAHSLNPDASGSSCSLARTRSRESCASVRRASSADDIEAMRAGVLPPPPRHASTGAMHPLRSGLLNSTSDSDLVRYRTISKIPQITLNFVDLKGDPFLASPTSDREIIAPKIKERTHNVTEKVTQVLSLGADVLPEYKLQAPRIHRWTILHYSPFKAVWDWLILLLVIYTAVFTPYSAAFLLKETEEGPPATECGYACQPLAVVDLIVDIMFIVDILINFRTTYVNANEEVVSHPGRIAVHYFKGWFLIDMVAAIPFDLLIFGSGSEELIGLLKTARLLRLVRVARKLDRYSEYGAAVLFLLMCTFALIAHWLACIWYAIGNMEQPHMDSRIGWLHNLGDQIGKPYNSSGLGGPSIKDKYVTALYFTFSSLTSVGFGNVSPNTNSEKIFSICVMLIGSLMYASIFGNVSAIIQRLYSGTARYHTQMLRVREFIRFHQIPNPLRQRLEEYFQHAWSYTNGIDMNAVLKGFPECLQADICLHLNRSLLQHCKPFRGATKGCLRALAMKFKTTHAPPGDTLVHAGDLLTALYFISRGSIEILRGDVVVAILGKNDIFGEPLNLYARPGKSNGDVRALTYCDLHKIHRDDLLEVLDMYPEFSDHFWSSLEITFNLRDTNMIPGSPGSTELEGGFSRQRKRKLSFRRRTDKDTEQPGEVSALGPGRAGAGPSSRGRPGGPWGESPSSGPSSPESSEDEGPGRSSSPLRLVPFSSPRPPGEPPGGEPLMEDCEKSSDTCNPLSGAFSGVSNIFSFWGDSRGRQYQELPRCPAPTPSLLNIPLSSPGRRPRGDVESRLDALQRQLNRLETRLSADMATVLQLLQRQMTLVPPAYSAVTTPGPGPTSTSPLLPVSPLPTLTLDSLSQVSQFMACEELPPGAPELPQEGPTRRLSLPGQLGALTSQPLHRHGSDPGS

| SMILES | hERG current change (%, negative = inhibition) at 1uM [%] |
| --- | --- |
| Cc1ccc(NC(=O)C2CCCN(C(=O)c3ccc(Cl)cc3)C2)cc1 (stereo not drawn) | 1.45 |
| CC(=O)Nc1ccc(NC(=O)c2ccccc2S(=O)(=O)c2ccc([N+](=O)[O-])cc2)cc1 | 12.1 |
| O=C(c1cccc(S(=O)(=O)Nc2ccccc2Cl)c1)N1CCN(c2ccccc2O)CC1 | 8.89 |
| CCOC(=O)Cn1c(=O)c2c(nc(Br)n2CC(=O)OCC)n(C)c1=O | 6.79 |
| COc1ccccc1CN1C(=O)C(=O)N(Cc2cccc(C)c2)C1=O | 8.03 |
| CCCCNS(=O)(=O)c1ccc2nc(SCC(=O)c3ccccc3OC)[nH]c2c1 | 7.06 |
| Cc1nn(Cc2c(F)c(F)c(F)c(F)c2F)c(C)c1NC(=O)c1ccc(COc2ccccc2Cl)o1 | -6.54 |
| O=C(N/N=C1\CC2CC=CC12)c1ccccc1Cl (stereo not drawn) | 6.21 |
| Nc1c(C(=O)NC2CC2)c2nc3ccccc3nc2n1-c1ccc2c(c1)OCO2 | 8.46 |
| CC(C)c1ccc(N)c(S(=O)(=O)O)c1 | 8.42 |
| CCN(CC)c1ncnc2sc3c(c12)CCC3.Cl | 4.44 |
| CCN(CC)c1ccc(CNc2nnnn2C)cc1 | 22.1 |
| COc1cc(C2CC(C(F)(F)F)n3ncc(C(=O)O)c3N2)cc(OC)c1OC (stereo not drawn) | 9.4 |
| Cn1ccnc1SCC(=O)Nc1cc(C(F)(F)F)ccc1N1CCOCC1 | -0.591 |
| CC(=O)Nc1ccc(S(=O)(=O)NC2(C(F)(F)F)NC(=O)N(CC(C)C)C2=O)cc1 (stereo not drawn) | 12.4 |
| NS(=O)(=O)c1ccc(OC(=O)CNC(=O)OCc2ccccc2)cc1 | 5.88 |
| Cc1cccc(N(C)S(=O)(=O)c2csc(C(N)=O)c2)c1 | 12.7 |
| CCCc1cc(C(=O)NNC(=S)NCC)c2ccccc2n1 | 12.1 |
| CN(Cc1ccccc1)c1ccc(S(=O)(=O)N2CCC(C(=O)O)CC2)cc1[N+](=O)[O-] | 5.62 |

| SMILES | hERG current change (%, negative = inhibition) at 1uM [%] |
| --- | --- |
| Fc1cccc(F)c1-c1nc(-c2ccncc2)no1 | 14.9 |
| Cc1cccc(CSc2nnnn2-c2ccccc2)c1 | 3.19 |
| Cc1ccc(C(=O)NCCSC2CCCCC2)cc1S(=O)(=O)Nc1ccccc1 | 6.28 |
| COc1ccc(C(=O)O)cc1NC(=S)NC(=O)/C=C/c1ccc(C(C)C)cc1 | 19 |
| O=C1CCCN1CCCNS(=O)(=O)c1ccc(Br)cc1 | 8.57 |
| O=[N+]([O-])c1cccc(/C=N/NS(=O)(=O)c2ccccc2)c1 | 10.2 |
| CC(C)(C)c1ccc(S(=O)(=O)N2CC3CC(C2)c2cccc(=O)n2C3)cc1 (stereo not drawn) | 1.64 |
| CCN(CC)CCNC(=O)C(=O)NCC1OCCN1S(=O)(=O)c1cccs1 (stereo not drawn) | 11.9 |
| CCOC(=O)C1CCCN(Cc2ccc(OCC)cc2)C1 (stereo not drawn) | -13.8 |
| CCOC(=O)c1c(NC(=O)CN2C(=O)NC3(CCCCC3C)C2=O)sc(C(=O)N(C)C)c1C (stereo not drawn) | -4.29 |
| O=C(NC(=O)c1cccc(F)c1)Nc1nc(-c2ccc(F)cc2)cc(C(F)(F)F)n1 | 7.95 |
| Cc1cc(Cl)nc(Cl)c1C(=O)NCc1ccc(Cl)cc1 | 5.58 |
| CCOC(=O)c1nn(C)c(C)c1Cl | 12 |
| Cc1cccc(N(C(=O)Cn2nnc(-c3ccc(C)o3)n2)C(C(=O)NC2CCCC2)c2ccncc2)c1 (stereo not drawn) | 14.2 |
| CC(C)(C)c1nnc(SCC(=O)Nc2ccc(N3CCCCC3)cc2)n1N | 9.88 |
| Cc1ccc(CN(C)C(=O)c2ccccc2Sc2ccccc2C#N)cc1 | 18.7 |
| CCc1cc2ccc(C)cc2nc1SCC(=O)NNC(=O)c1ccco1 | 5.1 |
| O=C(Nc1ccc(N2CCOCC2)cc1)c1ccc(S(=O)(=O)N2CCCCC2)cc1 | 4.75 |
| COc1cc(=O)n(C)c2cc(N(C)C)ccc12 | 25.3 |

| SMILES | hERG current change (%, negative = inhibition) at 1uM [%] |
| --- | --- |
| C=CCOC(=O)C1=C(C)NC(=O)NC1c1ccc(O)cc1 (stereo not drawn) | 10.9 |
| CC1CCCCC1NC(=O)C1CCN(S(=O)(=O)N2CCOCC2)CC1 (stereo not drawn) | -2.88 |
| CCO[C@@H]1OC(C(=O)N2CCN(C)CC2)=C[C@H](C2CCCCC2)[C@H]1CCCO | 7.63 |
| CCc1cccc(OCCCCN(CC)CC)c1 | -8.42 |
| COc1c(C)cc(Br)cc1C(=O)Nc1ccccc1C | 10.6 |
| COc1ccc(COC(=O)C2CCN(S(=O)(=O)c3cccs3)CC2)cc1 | 5.9 |
| COc1ccc(-n2nc(C(=O)NCC(=O)N3CCN(c4ccccn4)CC3)c3ccccc3c2=O)cc1 | 10.2 |
| CCOc1ccccc1C(=O)NC(C(=O)NCc1ccc(F)cc1)C(C)C (stereo not drawn) | -0.114 |
| COc1cccc(NC(=O)c2cc3cccc(OC)c3o/c2=N\O)c1 | 6.96 |
| O=C(NNC1CC(=O)N(c2ccccc2)C1=O)c1ccc(COc2ccccc2Cl)o1 (stereo not drawn) | 5.28 |
| Cc1cc2nnc(SC(C)C)n2c2ccccc12 | 4.74 |
| Br.Cc1ccc(C(=O)CSc2nc3c([nH]2)c(=O)n(C)c(=O)n3C)cc1 | 0.982 |
| COc1cccc(NC(=O)c2ccccc2SC)c1 | 9.46 |
| O=C(CC(Nc1cccc(Cl)c1Cl)C(=O)O)c1ccccc1 (stereo not drawn) | 7.09 |
| COC(=O)c1c(N)sc(Cc2ccccc2)c1C | 15.8 |
| CCCNc1c(NC(=O)c2ccc3c(c2)OCO3)c(=O)oc2ccccc12 | 15.1 |
| O=C(CC(CC(=O)c1ccccc1)C(=O)O)c1ccccc1 | 12.5 |
| Cc1noc(NS(=O)(=O)c2ccc(NC(=O)/C=C/c3ccc(C(C)C)cc3)cc2)c1C | 16.9 |
| O=C(Cn1c2[n+](c3ccccc31)CC(O)CS2)c1ccccc1.[Br-] (stereo not drawn) | 4.68 |
